Experimental data from PubChem BioAssay AID1745853 (National Center for Advancing Translational Sciences (NCATS), 2022).
The list shows a part of the results. Shown are side measurements of this screen, not its main read-out; they come without a call.

How the values were obtained:
Test in all cases: Primary Screen for Target Class Profiling of Small Molecule Inhibitors of Methyltransferases
[1] = molecular target: Glycine N-methyltransferase (Homo sapiens) (UniProt Q14749); conditions: purified enzyme, MTase-Glo SAH luminescence; measured here: GNMT inhibition; at 40 µM; stronger effect = lower value
Outline: (§1)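 Each enzyme was reacted with SAM and its substrate, with compounds tested once at 40 uM; SAH formed was read by MTase-Glo luminescence.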

[2] = molecular target: Guanidinoacetate N-methyltransferase (Homo sapiens) (UniProt Q14353); conditions: purified enzyme, MTase-Glo SAH luminescence; measured here: GAMT inhibition; at 40 µM; stronger effect = lower value
Outline: as §1

[3] = molecular target: Histamine N-methyltransferase (Homo sapiens) (UniProt P50135); conditions: purified enzyme, MTase-Glo SAH luminescence; measured here: HNMT inhibition; at 40 µM; stronger effect = lower value
Outline: as §1

[4] = molecular target: Nicotinamide N-methyltransferase (Homo sapiens) (UniProt P40261); conditions: purified enzyme, MTase-Glo SAH luminescence; measured here: NNMT inhibition; at 40 µM; stronger effect = lower value
Outline: as §1

[5] = molecular target: Phenylethanolamine N-methyltransferase (Homo sapiens) (UniProt P11086); conditions: purified enzyme, MTase-Glo SAH luminescence; measured here: PNMT inhibition; at 40 µM; stronger effect = lower value
Outline: as §1
% is set by controls: 0 for no effect and ±100 for the full control effect.

Row | Compound | activity change, negative = inhibition [1] [%] | activity change, negative = inhibition [2] [%] | activity change, negative = inhibition [3] [%] | activity change, negative = inhibition [4] [%] | activity change, negative = inhibition [5] [%]
1 | Cc1ccc(NC(=O)CCc2nnc3n(Cc4ccccc4)c(=O)c4ccccc4n23)cc1C | -5.48 | 1.45 | 3.79 | 6.86 | -0.255
2 | CC(C)NC(=O)c1ccc2c(=O)n(C3CC3)c3nn(CC(=O)Nc4cccc(Cl)c4)c(=O)n3c2c1 | -1.32 | 4.09 | 3.35 | -2.97 | 1.32
3 | CC1(C(=O)NC2CCCCC2)Cn2c(ccc2-c2ccco2)C(=O)N1CCc1ccc(Cl)cc1 (stereo unspecified) | -21.3 | -7.06 | -0.53 | -16.8 | -9.47
4 | Cc1ccccc1CNC(=O)C1(C)Cc2ccccc2C(=O)N1Cc1cccc(F)c1 (stereo unspecified) | 5.62 | 0 | 10.6 | -4.86 | 5.89
5 | CCCn1c(=O)c2ccc(C(=O)NC(C)CC)cc2n2c(SCC(=O)NC(C)(C)C)nnc12 (stereo unspecified) | 5.29 | 0 | 9.05 | -2.45 | 2.97
6 | CC(C)OCCCNC(=O)c1cc2n(n1)CC(C)(C(=O)NCc1ccc(F)cc1)N(C)C2=O (stereo unspecified) | -1.9 | -0.242 | -2.27 | -3.04 | -0.83
7 | CCCN1C(=O)c2c(C(=O)NCc3ccc(OC)cc3OC)ncn2CC1(C)C(=O)NC1CCCC1 (stereo unspecified) | -0.91 | 0.508 | 1.17 | -2.28 | 6.12
8 | CCN1C(=O)c2cc3ccccc3n2CC1(C)C(=O)NCC(=O)NCc1ccc(OC)cc1 (stereo unspecified) | 3.18 | 0 | 7.21 | -0.848 | 2.87
9 | Cc1cc2c(cc3n2CC(C)(C(=O)NC2CCCCCC2)N(Cc2ccc4c(c2)OCO4)C3=O)o1 (stereo unspecified) | 5.28 | 2.37 | 7.13 | 5.36 | 4.73
10 | CCNc1ncnc2sc3c(c12)CCN(Cc1ccncc1)C3 | -16.1 | -9.84 | -22.7 | -24.3 | -11.7
11 | CC(=O)Nc1c2n(c3ccc(F)cc13)CC(C)(C(=O)NC1CCCCC1)N(CCC(C)C)C2=O (stereo unspecified) | -6.41 | -3.06 | -0.171 | -7.39 | -5.44
12 | Cc1cccc(NC(=O)N2CCn3c(C)ccc3C2C(C)C)c1 (stereo unspecified) | 7.36 | 0 | -2.1 | -0.954 | 1.19
13 | CSC(=O)OCC1=C[C@@H]2OC(=O)C3=CO[C@@H](O[C@@H]4O[C@H](CO)[C@@H](O)[C@H](O)[C@H]4O)[C@H]1[C@@H]32 | 1.22 | 4.42 | 5.47 | -6.2 | 1.04
14 | COc1cccc(CNC(=O)c2cc3n(n2)CC(C)(C(=O)NCCC(C)C)N(C)C3=O)c1 (stereo unspecified) | 9.12 | 0 | 11.4 | 1.23 | 8.12
15 | CCCn1cc(-c2ccnc(NC3CCN(Cc4cccnc4)CC3)n2)c(C)n1 | -6.83 | -3.71 | -37.2 | -8.67 | 7.23
16 | N[C@@H](Cc1cc(I)c(Oc2cc(I)c(O)c(I)c2)c(I)c1)C(=O)O | -16.2 | -45.8 | -7.8 | -72.7 | -20.9
17 | CN(CCC1CCOCC1)C(=O)c1ccc(OC2CCN(C(=O)C3CC3)CC2)cc1 | -3.22 | -7.2 | -2.51 | -7.31 | -5.74
18 | Cc1cccc(N2C(=O)c3cc(-c4ccco4)nn3CC2(C)C(=O)NC2CCCCC2)c1C (stereo unspecified) | 3.78 | 0 | 3.21 | 8.08 | 1.32
19 | CN(C)CC(=O)N1CCC[C@@H](n2nc(-c3ccc(Oc4ccccc4)cc3)c3c(N)ncnc32)C1 |  | 16.9 |  | -33.8 | -3.91
20 | CC(=O)OCC1=C[C@H](O)[C@@H]2C(C(=O)O)=CO[C@@H](O[C@@H]3O[C@H](CO)[C@@H](O)[C@H](O)[C@H]3O)[C@H]12 | 4.58 | 2.38 | 7.47 | -8.24 | 2.31

Row | Compound | activity change, negative = inhibition [1] [%] | activity change, negative = inhibition [2] [%] | activity change, negative = inhibition [3] [%] | activity change, negative = inhibition [4] [%] | activity change, negative = inhibition [5] [%]
21 | COc1cc(C(=O)O)ccc1NC(=O)[C@@H]1N[C@@H](CC(C)(C)C)[C@](C#N)(c2ccc(Cl)cc2F)[C@H]1c1cccc(Cl)c1F |  | -26.4 |  | -78.5 | -3.98
22 | CC1(C)CC2C(O)C3=C(CC(C)(O)C2C1)C(=O)OC3 (stereo unspecified) | 0 | 9.84 | 9.29 | -1.88 | 7.13
23 | O=C(NC1CC(c2nnc(CO)n2C2CC2)C1)c1ccc2c(c1)CCO2 (stereo unspecified) | -2.31 | -5.45 | -1.17 | -11.4 | -1.89
24 | CCC(C)CNCC(=O)N1CCC2SC=CC2C1COc1cccc(C)c1 (stereo unspecified) | 2.62 | 5.34 | 2.5 | -16.8 | 0.903
25 | CCN(CC)CCCN1C(=O)c2ccc(-c3ccco3)n2CC1(C)C(=O)NC1CCCCC1 (stereo unspecified) | 1.8 | 4.24 | -0.971 | 4.53 | 1.94
26 | CCCCCCN(CCC(=O)NCCc1ccccc1)C(=O)c1cc(C)oc1C | -11.8 | 1.32 | -3.5 | -11.6 | 6.6
27 | CC(=O)Nc1c2n(c3ccccc13)CC(C)(C(=O)NCCC(C)C)N(Cc1ccccc1C)C2=O (stereo unspecified) | 3.91 | 0.761 | -0.998 | 5.75 | 2.42
28 | Cc1cc(C)cc(NC(=O)Cn2nc3n(CCC(C)C)c(=O)c4ccccc4n3c2=O)c1 | 4.42 | 1.34 | 6.82 | 5.27 | 3.78
29 | CCOC(=O)c1cc2n(n1)CC(C)(C(=O)NC1CCCCC1)N(c1ccc(OC)cc1OC)C2=O (stereo unspecified) | -7.98 | -3.82 | -12.4 | -24.7 | -4.75
30 | CC(C(=O)N1CCN(c2cc(-c3ccccc3)[nH]n2)CC1)c1ccccc1 (stereo unspecified) | -6.59 | -4.49 | -1.53 | -3.42 | -2.05
31 | CC(C(=O)NCc1cccc(Cl)c1)n1ccc2cc(S(=O)(=O)N3CCCC3)ccc21 (stereo unspecified) | 2.67 | 0.218 | 3.04 | -0.494 | 1.65
32 | COCCCn1c(=O)c(C(=O)NC2CC2)nc2cccnc21 | -3.31 | 1.16 | 3.49 | -3.28 | 1.16
33 | CCC(C)NC(=O)c1ccc2c(=O)n(C)c3nnc(SCC(N)=O)n3c2c1 (stereo unspecified) | 6.3 | 0 | 7.36 | 5 | 4.45
34 | C=C1C[C@@]23CC[C@H]4[C@@](C)(CCC[C@@]4(C)C(=O)O)[C@@H]2CC[C@]1(O)C3 | 2.39 | 9.3 | 3.84 | -4.47 | 6.42
35 | CS(=O)(=O)Cc1ccc(-c2cccc(OCc3ccccc3F)c2)nc1 | -5.54 | -11.3 | -2.37 | -12.5 | -7.56
36 | COc1cccc(S(=O)(=O)N2CCC3(CC2)CCC(O)(CN(C)C)CC3)c1 | 1.35 | 0.329 | 11.6 | 2.9 | 6.53
37 | CCOc1ccccc1CNC(=O)Cn1ccc2cc(S(=O)(=O)N3CCCCC3)ccc21 | -3.75 | -1.08 | -12.3 | -12.5 | -6.77
38 | CC1(C)CC[C@]2(C(=O)O)CC[C@]3(C)C(=CCC4[C@@]5(C)C[C@@H](O)[C@H](O)C(C)(C)C5CC[C@]43C)[C@@H]2[C@@H]1O (stereo partly specified) | 2.18 | -1.95 | 5.31 | -11.7 | -5.91
39 | CCN(CC)c1cc(CCC(=O)N2CCN(c3cccc(OC)c3)CC2)ccn1 | -5.3 | -3.23 | -75.6 | -5.45 | -0.67
40 | CC1=NOC2(CCN([S+](=O)([O-])c3c(C)noc3C)C2)C1 (stereo unspecified) | -2.04 | 2.33 | 3.12 | -2.39 | 10.8

Row | Compound | activity change, negative = inhibition [1] [%] | activity change, negative = inhibition [2] [%] | activity change, negative = inhibition [3] [%] | activity change, negative = inhibition [4] [%] | activity change, negative = inhibition [5] [%]
41 | Cc1cc(=O)n(CC(=O)NC(C)CCc2ccccc2)c(N2CCc3ccccc3C2)n1 (stereo unspecified) | -2.81 | -4.81 | -1.42 | -1.44 | -7.16
42 | CCOCCCNC(=O)CCn1ccc2cc(S(=O)(=O)N3CCCCC3)ccc21 | -2.76 | 5.02 | -1.57 | 0.604 | 2.91
43 | CC1CCC(NC(=O)C2(C)Cn3c(ccc3-c3ccco3)C(=O)N2Cc2cccc(Cl)c2)CC1 (stereo unspecified) | -7.32 | 2.97 | 1.93 | -19.7 | -1.45
44 | COc1ccc2c(c1)N1C(=O)C[C@@]34C=CC[N@+]5([O-])CC[C@H]2[C@H](CC3)[C@@]145 | 3.55 | 1.68 | 9.06 | -7.17 | 3.05
45 | O=C(CCc1nnc2n(Cc3ccc(Cl)cc3)c(=O)c3ccccc3n12)Nc1ccccc1 | -3.12 | 3.64 | 4.21 | -7.6 | -2.47
46 | Cc1ccc(Cn2c(=O)c3ccccc3n3c(SCC(=O)Nc4ccccc4F)nnc23)cc1 | 1.06 | 2.59 | 9.5 | 2.52 | 2.84
47 | CC(C)C1c2cccn2CCN1C(=O)Nc1ccccc1C(F)(F)F (stereo unspecified) | 16.1 | 0.569 | 7.02 | 7.54 | 11.5
48 | O=C(O)Cc1ccccc1Oc1ccc(Cl)cc1Cl | -9.13 | -11.3 | 2.74 | -17 | 1.16
49 | CCOc1ccc(CNC(=O)c2ncn3c2C(=O)N(C2CC2)C(C)(C(=O)NCc2cccc(C)c2)C3)cc1 (stereo unspecified) | -6.32 | 4.54 | -3.14 | -2.3 | -0.374
50 | CN(C(=O)Cn1nc2n(C)c(=O)c3ccc(C(=O)NC4CCCC4)cc3n2c1=O)c1ccccc1 | 2.79 | 4.93 | 0.8 | 2.97 | 1.73
51 | COc1ccccc1N1CCN(c2ncnc3n[nH]c(Br)c23)CC1 | -30 | -23.9 | -32.2 | -68.9 | -26.8
52 | CNC(=O)[C@@H]1CN(C(=O)CCc2ccc(OC)c(OC)c2)C[C@H]1CO | -2.35 | -6.47 | -3.06 | -11.2 | -10.5
53 | CCc1cc2c(cc3n2CC(C)(C(=O)NC2CCCCCC2)N(Cc2ccccc2Cl)C3=O)s1 (stereo unspecified) | 7.58 | 0.523 | 10.5 | 10.6 | 3.3
54 | CCCn1c(=O)c2ccc(Cl)cc2n2c(=O)n(CC(=O)Nc3cc(F)ccc3F)nc12 | -0.302 | 2.34 | 0.941 | 1.75 | -0.39
55 | CCOc1ccc(CN2C(=O)c3cc4ccccc4n3CC2(C)C(=O)NCc2ccccc2OC)cc1OC (stereo unspecified) | 0.81 | 5.83 | 3.62 | -5.82 | -0.425
56 | COc1cc(-c2cccc(O)c2)cc2c1OCO2 | 1.75 | 9.27 | 11.2 | -3.84 | 7.71
57 | CCCC1c2cccn2CCN1C(=O)Nc1ccc(C)cc1C (stereo unspecified) | -0.929 | 2.42 | -6.89 | 3.45 | 4.85
58 | O=C(c1c2ccccc2cc2ccccc12)N1CCC(N2CCC[C@@H](C(=O)N3CCOCC3)C2)CC1 | 6.21 | 6.58 | 5.45 | -12.3 | 3.43
59 | CCOc1cc(CN2CCC(C(Cc3ccccc3F)N(C)C(=O)c3cccs3)CC2)ccc1O (stereo unspecified) | -6.14 | -1.81 | -33.4 | -7.58 | -0.178
